Source: the supplement of paper PMC11417369
This is one part of the list.

Each sequence was assayed on PfAP2-HC AP2 domain (GST-tagged) (assay: gcPBM binding intensity (ln(normalized median fluorescence intensity)); higher = stronger DNA binding).
Outline: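 Using an Agilent 4 × 180k array, primer-extended double-stranded 36-bp intergenic genomic probes and negative controls were exposed for 1 h to GST-fused P. falciparum DNA-binding domains expressed in E. coli. Binding was carried out in 1× PBS with 1% milk, 0.2 mg/ml BSA, 0.5% salmon testes DNA and 0.03% Triton X-100, and protein was detected with Alexa488 anti-GST antibody and a 488 nm scan. Binding intensity is the highest Masliner-normalised natural-log median intensity across replicate spots of either probe orientation.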

Row | Sequence | gcPBM binding intensity (ln)
1 | TTTTTTTTTTTTTTTTGTACATATACATATATATAT [XGTACX_site1981] | 9.67
2 | AGTAGCAAATATTAAGTGCATATTATATAATGTGTA [GTGCAC_site9546] | 9.72
3 | GGTTTACCCTATAAATGTACTCATAAATTATATATA [XGTACX_site5771] | 9.32
4 | ATACGAAATAGAAACACACATACAATAAATAAATAT [CACACA_site2017] | 10.5
5 | TGTTCAGTATGGCACACACACAACAAAATAAAAAAA [CACACA_site4368] | 10.7
6 | ATGGATTATTTTTAAACATGCAGTAGTGATGAAAAA [TGCATGCA_site346] | 9.68
7 | AAAAAAAACATACATACACACACATAAATATATATA [CACACA_site8864] | 11.4
8 | GTTCTTTCAAATTATACACACCAAAAAAAAAAAAAA [CACACA_site5660] | 9.51
9 | TGATCAAGTAAGAAAAGTACAAAAAAAGTAAAAAAT [XGTACX_site6529] | 9.73
10 | ATAAGTTTTTATTTTCTGCACTGTCGAATAATAGTT | 9.61
11 | GCGTGTGTACAATGAGTGCATATCTAAAGGGAAGAT | 10.1
12 | GATATGTTTTATTATGTTGATGATAACAGGTAGTTT [CACACA_negctrl_site356] | 9.68
13 | AAAAAATATATATATATATATATGTAATATTTTTTT [XGTACX_negctrl_site439] | 9.58
14 | TGGCAAAATAGGCACACACACATATACAGATATATT [CACACA_site4727] | 10.3
15 | TCAATGAAATTAATATGTACATATTTTTATATAGTA [XGTACX_site7955] | 9.48
16 | AAAACTATAAAAATTTTACACACTGTTTTTAAATAA [CACACA_site3667] | 9.57
17 | TATATTATAATATTCACACACTAACGTAAATCATTG [CACACA_site7318] | 9.78
18 | ATCTCTTACATATTCACACACATATAAATAACTACA [CACACA_site6816] | 9.96
19 | ATTAATAATTATTATGGTACACATGTAACTACTCTC [XGTACX_site198] | 9.71
20 | ATATGATAGTTTATATGTACATAAATAAATACATAC [XGTACX_site2917] | 9.88

Row | Sequence | gcPBM binding intensity (ln)
21 | AAAGAAAAAAAATAATGTACATATGTATTTGAGAAA [XGTACX_site3571] | 9.92
22 | TTCTAAAATTATATAGTGCAATTATTTTATTTTTCT | 9.59
23 | AAAAAAATAAAACACATACATATATGTATATATATA [GTGCAC_negctrl_site390] | 9.76
24 | TAAATATATATATAAGTGCATTATATATATATATAA | 9.63
25 | CTATATAAAAAAATTGCACACATAAATATATACATA [CACACA_site8325] | 9.8
26 | ATAAATCCCAAAACCTTGCAAGACAACGTTTGATCA [CACACA_negctrl_site1327] | 9.44
27 | TGTAGAAGAACCCATGCATGCAGTATGAAAAAAAAA [TGCATGCA_site907] | 9.53
28 | AAAAAAAGAAAAAAACGTACATGAAAATTTTTTGTT [XGTACX_site5135] | 9.69
29 | TTATGTATTTATTTATGTACTAATTGTATGCATATT [XGTACX_site6436] | 9.81
30 | CATATACATAGACACACACACACATAAATAAATATA [CACACA_site6749] | 10.4
31 | ATACTTTATAAATACTAAAGTGTATTTTGTAATATA [CACACA_negctrl_site1710] | 9.43
32 | ATTTGTATATATAATTGTACGCATATTCTATACGAT [XGTACX_site7367] | 9.73
33 | TAAGTGATCGCATAATGTACATATTATTTATTATTT [XGTACX_site3061] | 9.75
34 | TACATTTAAAAAAAAACACACATATTTATATTTATA [CACACA_site7236] | 9.52
35 | GGAAGGATATAACATACACACACACCCATATATATA [CACACA_site9376] | 10.3
36 | ATAAATATGGAGCACACACACATAAACATACAGATA [CACACA_site4395] | 10.5
37 | TACTTTCACATTAAATGTACGTATAGTTTCATTCTT [XGTACX_site8528] | 9.82
38 | ATATTAAAAATATATACACACATATATATAAATATA [CACACA_site2257] | 9.87
39 | TATATTTAAGTACATAAATAAGCCCATTTACATACA [CACACA_negctrl_site1224] | 9.37
40 | TTTGGAGAATTCATAGTGCATTTATTTATTGTTAAT | 9.6

Row | Sequence | gcPBM binding intensity (ln)
41 | ACGTTAGGCTTATTTGCACACTTGTATTATAATTTT [CACACA_site1317] | 10
42 | AAAAATATGAAAGTAACTAAGTTGTTATTGATAACA [CACACA_negctrl_site1608] | 9.57
43 | ATATTATCACAAGGTGGTACACAAAAAAAAAAAAAA [XGTACX_site8224] | 9.52
44 | ATATATAATTATTGAAGTACTTGTTCATAAAATGGT [XGTACX_site5656] | 9.5
45 | TATATGAGCATAAAGACACACAAATAAAACCAAACA [CACACA_site3856] | 9.98
46 | AAAATAAAATGAAAACGTACATGATAAATTTTAATT [XGTACX_site4199] | 9.76
47 | ATATTATAAATATAATGTACGTTTTAATTTCATGTT [XGTACX_site3557] | 9.61
48 | TACTACACACATTCATGTACTTGATAAATTAATGAT [XGTACX_site6444] | 9.76
49 | ATAACTAATATGAAATGTACCCATCAAAGTGTGCAT [XGTACX_site4463] | 9.68
50 | TAATTTGTTATTTATTGTACAAACATTATATGTTAA [XGTACX_site6637] | 9.57
51 | AAAATTAAAATACGTACACACCTTATCTTTTTGGCT [CACACA_site4311] | 9.79
52 | AGAACAATTCTGTGGTGTACCAAAAAAAATTTAATT [XGTACX_site8082] | 9.8
53 | TAAATGAATTTTACTATACACACGTATACATTTGTA [CACACA_site1210] | 9.82
54 | AAAATAAATAAATATACACACCATATTTATATTTTT [CACACA_site7361] | 9.79
55 | ATATTTAAATTTTGCACACGCATATGAAATTAGGAC [CACACA_site1035] | 9.85
56 | ATTTTGCCTGACCCATGTACATATTATTTTTTGCAT [XGTACX_site2258] | 10.5
57 | CTATGAATAGGAAAAAGTACTAAACCTTTATATATA [XGTACX_site5022] | 9.49
58 | CACATAAAAATTGTGTTGCACTTTTATTCTTATATC | 9.89
